# Assay results: the supplement of paper PMC10126150
# Sequences with one replicate were seen in a single cluster, so their values are uncertain.
# System: ATP
# Experiment: switch fluorescence ratio, 500 uM ATP over buffer (Cy3 cluster intensity, sum of 5 cycles each) (fold (ratio)); higher = stronger signal-on switching upon ATP binding; sequences stand for … in TCGTCGGCAGCGTCAGATGTGTATAAGAGACAGTTTTTTTTTTTTTTTTTTTTTTTTT…TC
# Settings: aptamer strand: ATP DNA aptamer (quencher-CACCTGGGGGAGTATTGCGGAGGAAGG + anchor), 100 nM annealed; ATP concentration: 500 uM; one replicate
# Summary of the method: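 Clusters with intensities outside 100-1000 RFU were excluded. The remaining Cy3-labelled switching-strand clusters on a modified Illumina MiSeq flow-cell had been annealed to 100 nM quencher-labelled ATP aptamer and imaged in selection buffer, then after 15 min with 500 uM ATP at 22 °C, for five cycles separated by NaOH stripping and re-annealing. The fluorescence ratio, averaged per switch-domain sequence, is each cluster's summed target-cycle Cy3 intensity over its summed buffer-cycle Cy3 intensity.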
# 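Also: ATP exposure 15 min at 22 °C before imaging.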
row,Sequence,switch fluorescence ratio
1,CGTGTATACG,1.01
2,AGGGCAATCG,1.01
3,AAGCAGCTTT,1.04
4,TACAACGACG,1.04
5,CAAGGCACAA,1.09
6,ATCAGACGGT,1.02
7,GAAGTCTTTG,1.02
8,ACAATAATGT,0.946
9,TATATAGTGG,1.02
10,TCTAGTATGT,0.994
11,TAGGGATGTT,1
12,CTGTCACGTT,0.973
13,AGAGCTAGTG,0.953
14,AATACAACAC,1.16
15,TGTGTAGAAG,0.948
16,CTTAGGTGGG,0.985
17,CCTAGAACTC,1.06
18,ACCTATGTTG,1.02
19,AGGAGTCCCG,1.06
20,AGTGGAAGTA,0.995
21,ACGTAATCGG,1.02
22,CAGATCAGTC,1.02
23,CTTTGAGGTA,0.991

row,Sequence,switch fluorescence ratio
1,AGGCGCGCTA,1.03
2,GCGAAAAAAC,0.951
3,GCACAGATCA,1.04
4,CGGACCGGCG,1.01
5,GCGGACTAG,1.03
6,TAAGTAAACC,1.02
7,ACCCGGTTTT,1.04
8,CCCCTGATTG,1.08
9,GTTCTCTAGC,0.961
10,ATGTTATTAT,1.06
11,TGCCTAGAAG,1.01
12,TGTTCAAACG,0.997
13,TTGACGCCGG,1.03
14,CCGGGCTAT,1.94
15,GGTAGGTTTC,0.996
16,TCGAGCGTCA,1.02
17,ATGAACGCGG,0.953
18,GTTGTTA,0.994
19,TGAGATGTGC,0.983
20,ATAATCCGGT,0.972
21,GGCCGAAAG,1
22,CCCCACTGC,1.08
23,TCTCTAAGAG,1.15

row,Sequence,switch fluorescence ratio
1,TCGACAAGCC,1.33
2,CACTACGCGC,2.75
3,CGCGTGTTTG,1.02
4,TTACATAGTC,1.06
5,GGCTTTTCGT,0.987
6,AATAGCCATC,1.03
7,AAAGATATG,0.978
8,CTGTCGAACT,1.03
9,CGACAAATCG,1.08
10,TCCATGGCGG,1.08
11,CTGAATTACT,1.08
12,GGATTTGCAG,1.02
13,TGCGCTAATT,1.06
14,AGCCGCGGTG,1
15,TGAAGTCCGC,1.73
16,ACTTAAAGCG,0.989
17,ACCGATCGGG,0.99
18,AGGCCCTCAG,1.01
19,CATTGCTCGG,0.993
20,CGTGGCAACA,0.972
21,GTTAGCGGTC,1.05
22,TTTTAAAAG,0.996
23,ACGACAGTGT,1.02

row,Sequence,switch fluorescence ratio
1,TTTGGCTGCA,1.19
2,TTGTCTGACA,1.01
3,ATAAGCGTAG,0.97
4,TCCTGGGCTG,1.05
5,ATAGTCACCC,1.07
6,GTGAGGGGAG,0.983
7,AATTGAAAGA,0.977
8,TTTACGCATT,1.04
9,TGCAATAGGC,1.62
10,GTTTAAGGG,0.973
11,TCACGTCCAC,1.4
12,TGTTACCCCC,1.02
13,CAGAGCACAC,2.07
14,AGCGACCCAC,1.5
15,ACTGAGTT,1.04
16,TGTGAAAGAG,0.942
17,AGATGGTTG,0.95
18,GTCTTATGCG,1.04
19,GTGTACCGAT,0.974
20,GCCGCGAGAG,2.95
21,TGATGATCTA,0.995
22,TTCCGTCCCT,1.08
23,TAAGCAAGTT,1.01

row,Sequence,switch fluorescence ratio
1,GTATTGTCGC,1.09
2,AAGAACACGG,1.02
3,ACTTAATCAT,0.992
4,ATTATAAAGT,1.01
5,TCGTTTTTAG,1.04
6,AAACTATTTA,1.06
7,TGTTCCGTTC,1.02
8,AAGCGTTGGA,0.982
9,TCGTCTTGGT,1
10,TACTTCGGCT,1
11,TTCTACTTCT,1.04
12,CCTTACTGGT,1.05
13,TGACCACGCG,1.12
14,ACGTGTGTTG,0.965
15,CTTACTAC,1.17
16,TAAGCAGTAT,1.25
17,CATGGTTGGA,0.944
18,AAATTTAGT,0.977
19,TAAGAATTTA,1
20,GCATGCTCGG,1
21,ATCATTTCTG,0.967
22,AAAACGGGTT,1.05
23,CCTTGCAAAG,2.65

row,Sequence,switch fluorescence ratio
1,TTATTGAGGG,1.02
2,CCATTTCGAT,1
3,ATTCTCGATG,0.985
4,ACGATGGATG,1.01
5,ACCGTTCGGG,0.974
6,GAGTTTAAGT,0.972
7,TCTGGGTGTG,1.01
8,AGGATGTAGT,0.99
9,ACCAGGGTTG,1.22
10,CGAAGTTCGT,1.03
11,GCGAGGCTTG,0.996
12,CGTTGAAATC,0.993
13,AGGGTGCCGG,0.932
14,TACTGCCATG,1.06
15,GGTTACGGAG,0.996
16,TAAGAAATGC,1.24
17,AAGTAGGGCT,0.945
18,CAAATATCTG,0.949
19,GGCGCAAGGC,4.51
20,TATTGCGGCT,1.04
21,AGGATATCCC,1.01
22,TGCGAAAGTA,1.03
23,TATCTTGTAA,1.01

row,Sequence,switch fluorescence ratio
1,AATACGTACG,1.29
2,CAGCTTCTAT,0.992
3,TGGGTTCGAC,0.947
4,AAGCAGGAGG,0.979
5,TGGGGGTTT,1.09
6,TGGCGGGCAC,1.05
7,GAGAGGGCTG,0.939
8,GGGACCTAAT,1.03
9,AAACGGTCGC,0.996
10,CTGGTCCGTC,0.998
11,TAATCGGGCA,1.01
12,GCCTAGGTGC,2.7
13,TATAAGGCG,1.02
14,GGCGATGAAC,1.05
15,CATATGTTGT,0.981
16,TGGGTCTCGT,0.995
17,GAGGCCAAAT,1.04
18,AATCGCTTCA,1.05
19,TGCCTGGGGC,1.05
